# Test results as given in PubChem BioAssay AID504832 (National Center for Advancing Translational Sciences (NCATS), 2011).
# Values joined by “and” are separate entries in the source; they are usually repeats but may differ in a detail not shown here. Equal values may be shown once. About 18,000 (5.8%) of roughly 310,000 compounds were called active. The inconclusive results got no clear call from the source; some entries with a clear call stand among them for comparison. Calls follow the shape of the dose curve; as a rule, active = well fitted inhibition curve with a large enough effect; inconclusive = small, poorly fitted or top-dose-only effect, or another doubt; inactive = no such curve, though single readings can be large or run the other way. Where the call is inconclusive, the potency comes from a doubtful curve fit.
# Test: Primary qHTS for delayed death inhibitors of the malarial parasite plastid, 48 hour incubation
# Settings: P. falciparum luciferase growth in erythrocytes; series mostly up to 28.7 µM; activity change, negative = inhibition: at the top concentration
# Summary of the method: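 A one-generation exposure of luciferase-tagged malaria parasites in RPMI 1640/Albumax erythrocyte culture, 37 C and 5% CO2. Inhibition is inferred from decreased luminescence after adding detection reagent.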
# % is scaled to controls: 0 for no effect and ±100 for the full control effect; potency is read from the fitted curve at half-maximal effect; tags tell the direction and shape of the fitted curve.
Compound,Potency,"activity change, negative = inhibition"
Cc1c(C(=O)NCC2COc3ccccc3O2)oc2ccc(S(=O)(=O)N3CCOCC3)cc12 (stereo not drawn),"inconclusive: 3.29 µM [inhibitor, full curve]",–
CCC(C)NC(=O)c1ccc(NC(=O)C2CCCO2)cc1 (stereo not drawn),–,inactive: 30.2%
O=C(c1ccc(Br)o1)N1CCN(c2ccc3nnc(-c4ccc(F)cc4)n3n2)CC1,"inconclusive: 11.7 µM [inhibitor, single point]",–
CCn1c(=O)c(CCC(=O)N2CCN(c3ccccn3)CC2)c(C)c2c(C)nn(-c3cccc(C)c3)c21,active: 9.28 µM,–
CCN(CC)CCCNc1nc(-c2ccccc2)nc2ccccc12,"inconclusive: 10.4 µM [inhibitor, single point]",–
CCOc1ccccc1NC(=O)Cn1c(=O)sc2ccccc21,–,inactive: -26.6%
COc1ccc(C(C(=O)NC2CCCC2)N(C(=O)c2ccoc2C)c2ccc(C)cc2)cc1 (stereo not drawn),active: 10.4 µM,–
COC(=O)C1=C(C)N(c2ccc(Cl)cc2)/C(=C/c2ccc(O)cc2)C1=O,–,inactive: -20.1%
COc1ccc(Oc2ncnc3c2oc2ccc(Br)cc23)cc1,–,inactive: 23.6%
CCOc1ccc(-c2[nH]ncc2-c2ccc(Cl)cc2)c(O)c1,active: 8.28 µM,–
C=CCC(=O)NC1CC(C)(C)Cc2c1cnn2-c1ccccc1C (stereo not drawn),"inconclusive: 13.1 µM [inhibitor, single point]",–
CC1=C(C#N)C(=O)NC(=O)/C1=C/c1ccc(-c2ccc(S(N)(=O)=O)cc2)o1,–,inactive: 4.68%
Cc1c(-c2ccco2)[n+](=O)c2c(n1[O-])CCC2,–,inactive: 18.2%
CCOc1ccccc1N(CC(=O)NCC1CCCO1)C(=O)CCC(=O)Nc1ccccn1 (stereo not drawn),"inconclusive: 0.0465 µM [inhibitor, full curve, poor fit]",–
CNC(=O)N(C1=NCCCCC1)c1ccc(Br)cc1,"inconclusive: 18.5 µM [inhibitor, single point]",–
O=C(Nc1ccncc1)C1CCN(S(=O)(=O)c2ccccc2)CC1,"inconclusive: 13.1 µM [inhibitor, single point]",–
COC(=O)c1ccc(-c2ncc[nH]2)cc1,–,inactive: 14.4%
CCOCCCNC(=S)NCCCNc1nc2cc3c(cc2cc1C#N)OCO3,"inconclusive: 18.5 µM [inhibitor, single point]",–
Cc1ccccc1C(=O)N1CCN(c2ccc(NC(=S)NC(=O)c3cccs3)cc2)CC1,active: 9.28 µM,–
CC(C)(C)c1cc(CCC(=O)NNC(=O)c2ccco2)cc(C(C)(C)C)c1O,–,inactive: -7.92%
O=S(=O)(c1ccccc1)N1CCN(Cc2ccc(Cl)cc2)CC1,–,inactive: 23.1%
Oc1ccc(/C=N/NP(=S)(c2ccccc2)c2ccccc2)cc1O,"inconclusive: 18.5 µM [inhibitor, single point]",–
COc1nc(NCCO)nc(Nc2cc(Cl)ccc2OC)n1,"inconclusive: 0.0828 µM [inhibitor, full curve, poor fit]",–
Cc1cccc(NS(=O)(=O)c2ccc(C)c(C(=O)NCC(c3ccccc3)N(C)C)c2)c1 (stereo not drawn),"inconclusive: 14.7 µM [inhibitor, partial curve, poor fit]",–
CCCC1(CCC)C(=O)NC(=Nc2ccccc2)NC1=O,–,inactive: -9.2%

Compound,Potency,"activity change, negative = inhibition"
CC[n+]1c(/C=C2\Sc3ccccc3N2C)ccc2cccc(C)c21,"inconclusive: 0.329 µM [inhibitor, full curve]",–
CCCCN(CCCC)C1=Nc2ccccc2N/C1=C(/C#N)C(=O)OCC,–,inactive: -33.8%
COc1cccc(CNC(=O)CC2C(=O)NCCN2CCCc2ccccc2)c1 (stereo not drawn),"inconclusive: 0.185 µM [inhibitor, full curve, poor fit]",–
COc1cccc(NC(=O)c2cc(S(=O)(=O)N3CCc4ccccc43)cn2C)c1,–,inactive: 23.7%
CN(C)CCCNc1ccc(-c2n[nH]c(=O)c3ccccc23)cc1[N+](=O)[O-],"inconclusive: 11.7 µM [inhibitor, single point]",–
Cc1cc(NCc2ccc(F)cc2Cl)n2nnnc2n1,"inconclusive: 18.5 µM [inhibitor, single point]",–
CCOC(=O)C(Cc1cc(C(C)=O)ccc1OC(C)C)C(=O)OCC,"inconclusive: 18.5 µM [inhibitor, single point]",–
COc1ccc(CN(CCN(C)C)c2ccccn2)cc1,"inconclusive: 16.9 µM [inhibitor, single point] and inconclusive: 18.5 µM [inhibitor, single point]",–
COc1cc(CNCc2cccs2)ccc1OCc1cccs1,"inconclusive: 10.4 µM [inhibitor, single point]",–
Cc1onc(-c2ccccc2)c1-c1ccnn1S(=O)(=O)c1ccc(Cl)cc1,"inconclusive: 1.85 µM [inhibitor, full curve, poor fit]",–
Cc1nc(N)sc1-c1csc(NCc2ccccc2)n1,"inconclusive: 16.5 µM [inhibitor, partial curve, poor fit]",–
Cn1c2c(c(O)c(-c3ccccc3)c1=O)C(=O)CC(C)(C)C2,"inconclusive: 13.1 µM [inhibitor, partial curve, poor fit]",–
COc1ccccc1CCNC1CCC(C(C)(C)C)CC1 (stereo not drawn),active: 2.33 µM,–
O=C(CCc1ccccc1)Nc1ccccc1,–,inactive: 25.3%
COc1ccc(S(=O)(=O)Nc2cc(C(=O)NCCCOC(C)C)ccc2N2CCOCC2)cc1,–,inactive: 0.833%
Cc1nnc(NC(=O)c2ccc3nccnc3c2)s1,–,inactive: 43%
CCCc1cc(C(=O)Nc2ccn(Cc3ccc(C)cc3)n2)no1,"inconclusive: 18.5 µM [inhibitor, single point]",–
Cc1ccc(C(=O)NCCc2nnc(SCC(=O)Nc3cccc(C(=O)O)c3)n2C)cc1,–,inactive: 10%
O=C1c2ccccc2C(=O)N1CN(C(=O)c1ccccc1)c1ccc(O)cc1,"inconclusive: 18.5 µM [inhibitor, single point]",–
CCOc1ccc(CC(=NCCc2ccccc2)C2=C(O)CC(C)(C)CC2=O)cc1OCC,"inconclusive: 14.7 µM [inhibitor, single point]",–
Clc1ccccc1CSc1nnc(-c2ccccn2)n1Cc1ccco1,"inconclusive: 11.7 µM [inhibitor, partial curve]",–
O=C(NCCc1ccc(Cl)cc1)C1CCCN(c2ncnc3c2nc2n3CCCCC2)C1 (stereo not drawn),"inconclusive: 8.28 µM [inhibitor, partial curve, poor fit]",–
COc1ccc(NC(=O)c2sc3nc(C)nc(N4CCN(c5ccccn5)CC4)c3c2C)cc1Cl,active: 1.85 µM,–
Nc1ccc(N2CCN(C(=O)c3cccs3)CC2)cc1,"inconclusive: 11.7 µM [inhibitor, partial curve, poor fit]",–
CN(C(=O)COC(=O)c1cccc(S(=O)(=O)N2CCOCC2)c1)C1CCS(=O)(=O)C1 (stereo not drawn),–,inactive: 24.6%

Compound,Potency,"activity change, negative = inhibition"
[O-]/C(=C(\C(=S)Nc1ccc(Cl)cc1)[n+]1ccccc1)c1ccc(OC(F)F)cc1,active: 10.4 µM,–
O=C(Nc1ccc2[nH]c3c(c2c1)CCCC3)c1ccco1,active: 3.7 µM,–
COc1ccc(OC)c(NC(=O)CCN2CCN(Cc3ccccc3)CC2)c1,active: 13.1 µM,–
COc1ccc(C(CNC(=O)c2oc3c(Cl)cccc3c2C)N2CCCC2)cc1 (stereo not drawn),"inconclusive: 14.7 µM [inhibitor, single point]",–
COc1ccc(S(=O)(=O)N(CC(=O)N/N=C/c2cccs2)c2ccc(C)cc2)cc1OC,–,inactive: -9.67%
O=S(=O)(NCCc1csc(-c2ccc(C(F)(F)F)cc2)n1)c1ccc2c(c1)OCCO2,–,inactive: -0.731%
COc1ccc(Nc2nc(Cl)nc(NCCO)n2)cc1,–,inactive: 0.161%
COCCNC(=S)N(CCc1c(C)[nH]c2ccc(Cl)cc12)Cc1cccnc1,"inconclusive: 11.7 µM [inhibitor, partial curve]",–
Cc1cc(C)n(-c2nnc(C)c(=O)[nH]2)n1,"inconclusive: 4.15 µM [inhibitor, single point]",–
Cc1ccc(S(=O)(=O)n2nc(OC(=O)c3ccccc3F)cc2N)cc1,–,inactive: 9.85%
CCCCOc1ccc(C(C)NC(=O)CCS(=O)(=O)Cc2ccc(C)cc2)cc1 (stereo not drawn),"inconclusive: 14.7 µM [inhibitor, partial curve, poor fit]",–
CCOc1ccc(C(=O)NC(=S)NC2CCCC2)cc1[N+](=O)[O-],"inconclusive: 18.5 µM [inhibitor, partial curve, poor fit]",–
CN(C)C1=NC[C@H](Cc2ccccc2)N1CC1CCCC1,"inconclusive: 16.5 µM [inhibitor, single point]",–
CSc1ccc(CN2CCCCCC2)cc1,–,inactive: -0.542%
NC(=O)C1CCN(C(=O)CC(c2ccccc2)c2ccccc2)CC1,–,inactive: 13.5%
CCOC(=O)[C@H]1[C@H]2COc3ccc(Cl)cc3[C@@H]2N2C(=O)CN(Cc3ccc(Cl)cc3)C(=O)[C@@]12C,active: 14.7 µM,–
COc1ccc(CCNC(=O)/C(C#N)=C/c2cccc(OCc3ccccc3)c2)cc1OC,"inconclusive: 13.1 µM [inhibitor, partial curve]",–
CCOc1ccccc1N1CCN(C(=O)NC(C)c2ccc(F)c(F)c2)CC1 (stereo not drawn),"inconclusive: 9.28 µM [inhibitor, partial curve, poor fit]",–
Cn1c(=O)c2c(nc(N3CCN(c4ccc([N+](=O)[O-])cc4)CC3)n2C)n(C)c1=O,"inconclusive: 4.15 µM [inhibitor, full curve, poor fit]",–
Cc1csc(NC(=O)CSc2nccn2Cc2ccco2)n1,–,inactive: 23.6%
Cc1cc2sc(NC(=O)c3ccco3)nc2cc1Cl,–,inactive: 322%
COc1ccc(OC)c(/C=C/c2[nH]c(=O)[nH]c(=O)c2[N+](=O)[O-])c1,"inconclusive: 13.1 µM [inhibitor, partial curve, poor fit]",–
CCn1nc(C)c(CNC(=O)c2cc(COc3cncc(Cl)c3)on2)c1C,"inconclusive: 0.329 µM [inhibitor, partial curve, poor fit]",–
